According to the supplement of paper PMC11417369:
The list shows a part of the results.

Tested on: PfHDP1 homeodomain (GST-tagged)
Experiment: gcPBM binding intensity (ln(normalized median fluorescence intensity)); higher = stronger DNA binding
In short: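 The binding buffer was 1× PBS containing 1% milk, 0.2 mg/ml BSA, 0.5% salmon testes DNA and 0.03% Triton X-100. In it, GST-tagged P. falciparum DNA-binding domains expressed in E. coli were applied for 1 h to an Agilent 4 × 180k array of primer-extended double-stranded 36-bp intergenic genomic probes plus negative controls. Binding intensity, read with Alexa488 anti-GST antibody and a 488 nm scan, is the highest Masliner-normalised natural-log median intensity across replicate spots of either probe orientation.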

Question: Which “gcPBM binding intensity (ln)” value does the source give for “AATATAATATACATATGTACATATATATATATATAT [XGTACX_site8218]” here?
Answer: Its value is 9.35.

Question: For “TATAACACACAATGATGTACATTACATTATTTTTTA [XGTACX_site2076]”, which “gcPBM binding intensity (ln)” value is on record?
Answer: Its value is 6.48.

Question: TAATATAAATGAAAGGTGCTTTTGCTTTCTTTTTTT was tested. Which “gcPBM binding intensity (ln)” value did it give?
Answer: Its value is 5.86.

Question: “ATATATATATATATGTGTACATATTTTTTTGAAGTG [XGTACX_site248]” was tested. Which “gcPBM binding intensity (ln)” value did it give?
Answer: The value was 9.37.

Question: How did the “gcPBM binding intensity (ln)” value turn out when “TTTTCTATATAACAACGTACATTTATTATATTATAA [XGTACX_site6148]” was run?
Answer: The value was 6.49.

Question: With “AGCAAGACGGGGTGCACACAAACTAATATGCCGAAT [CACACA_site159]” as the sequence, how does the “gcPBM binding intensity (ln)” value read?
Answer: The value was 9.51.

Question: With “TATTACATAATATATGTACACACGCAAATACTTATA [CACACA_site7994]” as the sequence, how does the “gcPBM binding intensity (ln)” value read?
Answer: The value was 6.52.

Question: How did the “gcPBM binding intensity (ln)” value turn out when “CAAAAAAAGTTATACACACACACACGGATATAAATA [CACACA_site6619]” was run?
Answer: The value was 6.94.

Question: For “TAACAACGATACAATTGTACAAATTATATATATATA [XGTACX_site4687]”, which “gcPBM binding intensity (ln)” value is on record?
Answer: Its value is 8.88.

Question: “ATTATGAATTTAAGACGTACAAAAAATTTTTATTCA [XGTACX_site5682]” was tested. Which “gcPBM binding intensity (ln)” value did it give?
Answer: Its value is 6.36.

Question: For “ACAAGTATTCCTTTTGCACACCTTTCTGCACCTTAT [CACACA_site3873]”, which “gcPBM binding intensity (ln)” value is on record?
Answer: Its value is 11.1.

Question: “ATTAAAATAATACGTACACACATGTATAATACATAT [CACACA_site1005]” was tested. Which “gcPBM binding intensity (ln)” value did it give?
Answer: The value was 6.74.

Question: For AAATACTTATTCGTGGTGCAACAATTTTAAAAATTA, which “gcPBM binding intensity (ln)” value is on record?
Answer: The value was 10.2.

Question: For “AATAATATATTATATGCATGTGTATAATTTGATATA [TGCATGCA_site1058]”, which “gcPBM binding intensity (ln)” value is on record?
Answer: Its value is 7.01.

Question: With “CAAAGGAAATGGTGTACACAATTTTTCCTTTTTCGT [CACACA_site4800]” as the sequence, how does the “gcPBM binding intensity (ln)” value read?
Answer: The value was 6.

Question: With “TTTGGTTATTTGACCTGTACACATTTAATTATTTTT [XGTACX_site5170]” as the sequence, how does the “gcPBM binding intensity (ln)” value read?
Answer: The value was 6.32.

Question: Which “gcPBM binding intensity (ln)” value does the source give for “CCCTCAACGAATTTGAGTACACATTTTAAATGATAT [XGTACX_site7763]” here?
Answer: Its value is 6.45.

Question: With “ATCGCAAGATTAATATAAGGAGAAACGTTTATATAT [GTGCAC_negctrl_site267]” as the sequence, how does the “gcPBM binding intensity (ln)” value read?
Answer: Its value is 6.96.

Question: How did the “gcPBM binding intensity (ln)” value turn out when “TTATAACATATAAACATGTTTCATCTTACGTATTTT [GTGCAC_negctrl_site694]” was run?
Answer: Its value is 6.72.

Question: “TGTTATATCAATAATATATAATAATACCCTTCTTTT [CACACA_negctrl_site1682]” was tested. Which “gcPBM binding intensity (ln)” value did it give?
Answer: Its value is 6.06.

Question: How did the “gcPBM binding intensity (ln)” value turn out when ATAAGAATATATAGAGTGCGTTGAAGAATTATAATA was run?
Answer: The value was 6.67.

Question: With “ATATTTAATTTGTATGGTACAGTACGATCTTTCTTT [XGTACX_site5533]” as the sequence, how does the “gcPBM binding intensity (ln)” value read?
Answer: Its value is 6.5.

Question: Which “gcPBM binding intensity (ln)” value does the source give for “TTTTTTTTTTTTTTTTGTACATAATTCCATATTTTT [XGTACX_site1789]” here?
Answer: The value was 6.35.

Question: Which “gcPBM binding intensity (ln)” value does the source give for “TGATCTTTACACATATTATATATATATAAAAAAAAA [XGTACX_negctrl_site360]” here?
Answer: Its value is 6.57.

Question: “ATTTAAATAATATTCACACACAAAATTAAATTTTAA [CACACA_site6246]” was tested. Which “gcPBM binding intensity (ln)” value did it give?
Answer: The value was 6.48.
